# From the supplement of paper PMC7335073
# In all, about 4,100 sequences were measured (“relative CpG methylation activity (normalised to average over all NNNCGNNN flanks)”: median about 0.87, highest 2% from about 2.4 on). Some of the results follow.
# Target: DNMT3A catalytic domain (mouse) (UniProt O88508)
# Assay: relative CpG methylation activity (normalised to average over all NNNCGNNN flanks) (relative (1 = mean)); higher = more methylation of the central CpG
# Conditions: system: in vitro, murine catalytic domain; CpG state: hemimethylated substrate pool; residues: 608-908
# Procedure: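 Deep enzymology: a pool of dsDNA substrates with a central CpG flanked by 10 random nucleotides on each side was methylated by the murine DNMT3A or DNMT3B catalytic domain (0.8 mM SAM, 37 °C, 60 min). Methylation was then read out by hairpin ligation, bisulfite conversion and NGS. Values are the average methylation of each NNNCGNNN context (±3 flanks; the outer flanks are random and averaged over), normalised to the overall mean, so 1 = average activity.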
row,Sequence,relative CpG methylation activity
1,GAACGGGC,0.87
2,GCTCGCAG,0.648
3,GGCCGTAT,0.28
4,CCCCGTGT,0.512
5,GCGCGCCT,2.07
6,CATCGGAT,0.46
7,TACCGATT,0.837
8,CCGCGAAT,0.581
9,CCTCGGAG,0.294
10,ATGCGGGG,1.17
11,CAGCGACG,0.442
12,GTACGTGC,1.2
13,AAGCGTAG,0.143
14,GTACGCCC,2.39
15,TGCCGAGC,1.38
16,TAGCGGAC,0.517
17,CCCCGCGG,0.391
18,GGTCGCTA,0.625
19,ACTCGGAT,0.799
20,GATCGTCA,0.592
21,GCACGAGA,1
22,CCGCGATA,1.07
23,AATCGCTC,0.962
24,GAGCGAAA,0.796
25,TTCCGCCC,2.77

row,Sequence,relative CpG methylation activity
1,ACTCGTAT,0.636
2,GACCGTGC,0.468
3,AACCGATT,0.836
4,CAACGCTG,0.808
5,CCGCGGCC,0.986
6,GTCCGCTA,1.9
7,ATCCGGTC,1.59
8,CTGCGCAT,1.47
9,GGACGGGG,0.233
10,CGACGTCA,0.996
11,ACACGAAC,1.79
12,GCCCGTCG,1.5
13,ACTCGTTA,0.745
14,AAGCGTTC,0.597
15,CTCCGTTG,0.955
16,AGCCGTGC,0.364
17,CCGCGAAA,0.844
18,ATGCGGAA,0.851
19,TAGCGAGT,0.361
20,GTGCGTCC,1.93
21,CGGCGATA,0.599
22,GATCGTGT,0.025
23,ACACGCGG,0.619
24,GTTCGTCT,1.3
25,GATCGGAC,0.714

row,Sequence,relative CpG methylation activity
1,CAGCGAAA,0.433
2,TTGCGAAG,0.913
3,AGACGCGC,0.92
4,AGGCGGTA,0.747
5,CTTCGGGG,0.814
6,AATCGCAA,0.347
7,TAACGTCT,0.904
8,GTTCGCTC,2.37
9,TCACGCGG,0.58
10,CCCCGTCT,1.73
11,ACGCGAAC,1.34
12,TGACGGCT,0.691
13,TGCCGCAA,0.807
14,CCCCGACA,1.53
15,CTTCGTGT,0.494
16,GGACGCGC,1.04
17,CGCCGATG,0.72
18,GTACGGAC,1.51
19,AGACGACC,1.16
20,AACCGCGC,1.02
21,TGGCGATT,0.23
22,CCTCGTGT,0.297
23,GACCGCTT,1.77
24,GGACGCGT,0.512
25,GGTCGTAC,0.216

row,Sequence,relative CpG methylation activity
1,GAGCGTGG,0.025
2,CTCCGTGG,0.317
3,CTGCGGCT,1.17
4,GATCGTAA,0.261
5,ACACGTGA,0.98
6,AAACGAGG,0.267
7,CCACGATT,1.04
8,AATCGCGG,0.0311
9,CATCGTCA,1.31
10,CAACGATG,0.349
11,GGTCGCCC,1.2
12,GTTCGATG,0.33
13,CACCGAGC,1.49
14,AGACGTGG,0.278
15,CCACGCTG,1.58
16,ATCCGTGA,0.909
17,ATGCGTGG,0.6
18,GTACGCTC,2.72
19,GATCGCCG,0.545
20,TGCCGCTG,0.973
21,GTCCGCTC,2.37
22,GAGCGGCA,0.7
23,TTGCGTGT,0.625
24,GTCCGAGG,1.65
25,AAGCGTTA,0.556

row,Sequence,relative CpG methylation activity
1,CCTCGTCT,1.57
2,CCCCGGAA,0.846
3,CCACGCCC,2.16
4,AGACGGGA,0.662
5,AACCGCTT,1.45
6,ATTCGCTG,0.992
7,GACCGCGC,1.18
8,AAGCGGAC,0.95
9,CCACGCTC,2.5
10,TCACGACT,1.17
11,TCACGCAA,1.5
12,GGTCGATC,0.632
13,CAACGCAC,1.23
14,CGCCGGAT,0.394
15,GCACGGTT,0.984
16,CTACGCTA,2.5
17,CCCCGAAT,1.07
18,AAACGACC,0.698
19,GTCCGATA,1.37
20,TGTCGCAA,0.848
21,CCCCGGTA,0.943
22,GTTCGCCT,1.92
23,CTCCGTTA,1.51
24,AGGCGGGG,0.025
25,CTGCGTCG,1.59

row,Sequence,relative CpG methylation activity
1,AAGCGCAG,0.376
2,TGCCGTTG,0.17
3,GAACGATT,0.613
4,CATCGAGG,0.36
5,TATCGCAC,0.93
6,CATCGGGG,0.133
7,CTTCGCTG,1.12
8,GACCGGAT,0.523
9,TTGCGGGC,1.62
10,GTGCGTCG,1.91
11,TTGCGGGA,1.03
12,TCCCGGTG,0.536
13,TTCCGATG,1.46
14,ACCCGTGC,0.638
15,TTTCGCAG,1.23
16,ACGCGACG,0.979
17,TAACGCTC,1.57
18,CGTCGCTA,0.737
19,TGCCGTAA,0.797
20,ATTCGGCT,0.663
21,TAACGGTC,1.06
22,TCTCGGTT,0.988
23,TCACGGCG,0.789
24,GGCCGTTC,0.777
25,TAACGCCC,1.61

row,Sequence,relative CpG methylation activity
1,GCTCGCGG,0.549
2,GGTCGTCT,0.726
3,CAGCGACC,0.599
4,CTGCGATC,1.42
5,TATCGGAG,0.197
6,CGTCGCCC,1.9
7,AAGCGATG,0.369
8,AGCCGACA,1.02
9,GACCGGTT,1.08
10,TTTCGACT,0.743
11,TCACGTGG,0.364
12,CCGCGCCT,2.07
13,CAGCGGTT,0.25
14,GGACGAAA,0.717
15,AAGCGCCG,1.19
16,GCCCGATT,1.01
17,GACCGTTT,0.619
18,CTTCGGAA,1.15
19,AGTCGGTT,0.368
20,TAACGCTT,1.53
21,TAGCGAGC,0.625
22,CTTCGCCT,2.27
